According to paper PMC4336329 (PLoS ONE, 2015):
In all, about 310,000 compounds went through this assay and about 2,200 (0.71%) showed an effect of 50% or more. The effect is printed as a negative number. This is one part of the list.

Each compound was assayed against human ether-à-go-go-related gene (hERG) potassium channel (human, UniProt Q12809) (assay: primary screen, population patch clamp on CHO cells stably expressing hERG).
Sequence of human ether-à-go-go-related gene (hERG) potassium channel (Q12809 whole entry, looked up): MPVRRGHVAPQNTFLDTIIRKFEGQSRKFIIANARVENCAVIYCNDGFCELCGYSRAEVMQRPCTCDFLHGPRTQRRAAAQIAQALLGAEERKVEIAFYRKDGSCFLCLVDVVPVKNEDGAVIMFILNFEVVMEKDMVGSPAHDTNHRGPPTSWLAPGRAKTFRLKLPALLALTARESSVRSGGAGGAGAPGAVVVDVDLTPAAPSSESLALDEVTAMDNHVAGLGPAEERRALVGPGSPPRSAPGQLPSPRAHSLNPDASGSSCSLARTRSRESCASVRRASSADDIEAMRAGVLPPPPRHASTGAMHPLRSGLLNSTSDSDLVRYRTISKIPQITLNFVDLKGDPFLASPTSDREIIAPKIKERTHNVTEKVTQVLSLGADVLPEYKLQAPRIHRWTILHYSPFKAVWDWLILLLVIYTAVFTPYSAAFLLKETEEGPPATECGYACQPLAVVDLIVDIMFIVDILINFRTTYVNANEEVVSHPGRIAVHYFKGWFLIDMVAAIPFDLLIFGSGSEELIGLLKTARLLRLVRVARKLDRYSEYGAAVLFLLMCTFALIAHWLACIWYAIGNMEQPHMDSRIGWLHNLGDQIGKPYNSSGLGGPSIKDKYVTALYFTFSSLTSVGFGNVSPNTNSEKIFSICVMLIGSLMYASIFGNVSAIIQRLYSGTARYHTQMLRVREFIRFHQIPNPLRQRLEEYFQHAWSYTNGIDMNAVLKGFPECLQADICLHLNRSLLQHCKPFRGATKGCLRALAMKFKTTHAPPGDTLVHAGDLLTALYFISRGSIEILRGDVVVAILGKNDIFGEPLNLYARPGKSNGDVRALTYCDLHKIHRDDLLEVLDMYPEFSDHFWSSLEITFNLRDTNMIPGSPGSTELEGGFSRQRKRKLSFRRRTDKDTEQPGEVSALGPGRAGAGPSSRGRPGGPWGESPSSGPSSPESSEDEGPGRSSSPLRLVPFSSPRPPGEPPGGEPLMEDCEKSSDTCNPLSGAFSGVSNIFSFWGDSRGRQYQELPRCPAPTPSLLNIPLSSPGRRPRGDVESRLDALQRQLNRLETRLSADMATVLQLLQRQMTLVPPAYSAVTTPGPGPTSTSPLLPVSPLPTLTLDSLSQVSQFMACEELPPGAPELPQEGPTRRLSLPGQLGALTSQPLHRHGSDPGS
With `O=C(CSc1nncn1-c1ccccc1F)NC1CCCCC1` the “hERG current change (%, negative = inhibition) at 1uM” value was 4.85%.
`CSCCC(NC(=O)COc1ccccc1)C(=O)N(C)Cc1cccc(F)c1` (stereo not shown) was tested, and the “hERG current change (%, negative = inhibition) at 1uM” value was 7.07%.
For `O=C(/C=C/c1ccc(F)cc1)N1CCCN(C(=O)/C=C/c2ccc(F)cc2)CC1`, the “hERG current change (%, negative = inhibition) at 1uM” value was -84.7%.
With `COc1ccc(OC)c(NC(=O)CN2C(=O)NC3(CCCc4ccccc43)C2=O)c1` (stereo not shown) the “hERG current change (%, negative = inhibition) at 1uM” value was 6.31%.
In the case of `O=C(C1=C(O)C(=O)N(CCN2CCOCC2)C1c1cccc(F)c1)c1cc2ccccc2o1` (stereo not shown), the “hERG current change (%, negative = inhibition) at 1uM” value is reported as 9.08%.
With `COc1ccc(/C(N)=N/OC(=O)c2ccc(Br)o2)cc1` the “hERG current change (%, negative = inhibition) at 1uM” value was 13.6%.
With `Cn1c(Cn2nnc3ccccc32)nnc1SCC(=O)c1ccccc1F` the “hERG current change (%, negative = inhibition) at 1uM” value was 0.528%.
`Cc1cc(S(=O)(=O)N2CCOCC2)ccc1OCC(=O)Nc1ccccc1C(F)(F)F` was tested, and the “hERG current change (%, negative = inhibition) at 1uM” value was 12.3%.
`CCNC(=O)N1C(=O)C2(OCCO2)c2cc(Br)ccc21` was tested, and the “hERG current change (%, negative = inhibition) at 1uM” value was 17%.
In the case of `CCCCSCCCNC(=O)c1ccc(CS(=O)(=O)c2ccccc2OC)o1`, the “hERG current change (%, negative = inhibition) at 1uM” value is reported as 4.94%.
`O=C(O)c1ccc2c(c1)C(=O)N(c1ccc(Nc3ccccc3)cc1)C2=O` was tested, and the “hERG current change (%, negative = inhibition) at 1uM” value was 12.7%.
`Cc1cc2oc(=O)cc(CN3CCOCC3)c2cc1O` was tested, and the “hERG current change (%, negative = inhibition) at 1uM” value was 3.59%.
For `CC(C)(C)NS(=O)(=O)CC12CCC(CC1=O)C2(C)C` (stereo not shown), the “hERG current change (%, negative = inhibition) at 1uM” value was 9.92%.
In the case of `CCN(CC)S(=O)(=O)c1ccc(N/N=C(\C)c2cccnc2)nc1`, the “hERG current change (%, negative = inhibition) at 1uM” value is reported as 5.53%.
In the case of `FC(F)(F)c1cc(-c2cccs2)nc2cc(-c3ccccc3)nn12`, the “hERG current change (%, negative = inhibition) at 1uM” value is reported as 0.818%.
For `O=C(N/N=C/c1ccoc1)c1ccc(Cl)cc1Cl`, the “hERG current change (%, negative = inhibition) at 1uM” value was 14.5%.
For `Cc1ccc(Oc2cc(NC(=O)CCCn3nc([N+](=O)[O-])cc3C)cc([N+](=O)[O-])c2)cc1`, the “hERG current change (%, negative = inhibition) at 1uM” value was 13.4%.
For `CC(C)(CNC(=O)c1ccc(-c2ccccc2Cl)o1)N1CCOCC1`, the “hERG current change (%, negative = inhibition) at 1uM” value was -5.93%.
`CCC(=O)Nc1cccc(NC(=O)CSc2nnc(C(C)C)n2CC)c1` was tested, and the “hERG current change (%, negative = inhibition) at 1uM” value was -3.14%.
In the case of `CCCc1[nH]nc2c1C(c1ccc(OC)c(Cn3nnc4ccccc43)c1)C(C#N)=C(N)O2` (stereo not shown), the “hERG current change (%, negative = inhibition) at 1uM” value is reported as 3.53%.
`COc1ccc(Oc2ccc(/C=N/NC(=O)c3cccnc3)cc2[N+](=O)[O-])cc1` was tested, and the “hERG current change (%, negative = inhibition) at 1uM” value was 9.93%.
`CCCn1c(NCc2ccc(N(C)C)cc2)nc2ccccc21` was tested, and the “hERG current change (%, negative = inhibition) at 1uM” value was -14%.
In the case of `O=C(Nc1ccccc1)NC1CCCCCCC1`, the “hERG current change (%, negative = inhibition) at 1uM” value is reported as 5.86%.
In the case of `O=[N+]([O-])c1ccc(O)c(/C=N/n2c(-c3ccccc3)n[nH]c2=S)c1`, the “hERG current change (%, negative = inhibition) at 1uM” value is reported as 18.6%.
With `CCCc1cc(=O)n2c(nc3ccccc32)[nH]1` the “hERG current change (%, negative = inhibition) at 1uM” value was 16.1%.
With `Cc1ccc(C2/C(=C(\O)c3c(C)nc4ccccn34)C(=O)C(=O)N2CCN(C)C)o1` (stereo not shown) the “hERG current change (%, negative = inhibition) at 1uM” value was 5.74%.
`O=C(Cn1cnc2ccccc21)NC(c1ccccc1)c1ccccc1` was tested, and the “hERG current change (%, negative = inhibition) at 1uM” value was 8.43%.
For `CN(C)CC1CCCCC1OC(=O)c1ccc(Cl)cc1Cl.Cl` (stereo not shown), the “hERG current change (%, negative = inhibition) at 1uM” value was -11.9%.
`COc1ccc2nc(SCC(=O)Nc3ccc4sc(C)nc4c3)c(C#N)cc2c1` was tested, and the “hERG current change (%, negative = inhibition) at 1uM” value was 14.7%.
In the case of `Cc1cc(C)n(Cc2ccc(NC(=O)c3nn(C)cc3[N+](=O)[O-])cc2)n1`, the “hERG current change (%, negative = inhibition) at 1uM” value is reported as 5.95%.
With `O=C1/C(=C/c2ccc(F)c(F)c2)CSc2sccc21` the “hERG current change (%, negative = inhibition) at 1uM” value was 9.32%.
For `Cc1ccc(S(=O)(=O)c2nc(S(=O)(=O)c3ccccc3)sc2N2CCN(C)CC2)cc1`, the “hERG current change (%, negative = inhibition) at 1uM” value was -2.65%.
In the case of `Cc1cc2oc3c(c(=O)c2cc1C)C(c1cccc(Br)c1)N(Cc1ccco1)C3=O` (stereo not shown), the “hERG current change (%, negative = inhibition) at 1uM” value is reported as 15.4%.
For `O=C(CSc1ccccc1)Nc1ccc(S(=O)(=O)Nc2ncccn2)cc1`, the “hERG current change (%, negative = inhibition) at 1uM” value was -2.53%.
With `Cc1cc(NC(=O)c2ccno2)no1` the “hERG current change (%, negative = inhibition) at 1uM” value was 5.82%.
`NC(=O)/C(=N\OC(=O)c1ccco1)c1nc(-c2ccc(Br)cc2)cs1` was tested, and the “hERG current change (%, negative = inhibition) at 1uM” value was 2.53%.
With `CCOC(=O)C1=C(C)NC(C)=C(C(=O)OCC)C1C(=O)OCC(=O)N1CCc2ccccc2C1` the “hERG current change (%, negative = inhibition) at 1uM” value was 10.9%.
In the case of `Cc1ccc(-n2c(=O)c3c4c(sc3n(Cc3cc(=O)n5ccccc5n3)c2=O)CCC4)cc1C`, the “hERG current change (%, negative = inhibition) at 1uM” value is reported as -1.08%.
With `COc1ccc(-c2nc3c(c(SCC(=O)N4CCOCC4)n2)COC(C)(C)C3)cc1` the “hERG current change (%, negative = inhibition) at 1uM” value was 0.065%.
For `Nc1nonc1-n1nnc(C(=O)c2ccccc2)c1-c1ccccc1`, the “hERG current change (%, negative = inhibition) at 1uM” value was 11.9%.
In the case of `Cc1c(Cl)cccc1NC(=S)Nc1ccccn1`, the “hERG current change (%, negative = inhibition) at 1uM” value is reported as 8.87%.
With `O=C(Nc1ccc(F)c(Cl)c1)c1ccccc1` the “hERG current change (%, negative = inhibition) at 1uM” value was 17%.
With `NS(=O)(=O)c1ccc(-n2nncc2C23CC4CC(CC(C4)C2)C3)cc1` the “hERG current change (%, negative = inhibition) at 1uM” value was 8.1%.
In the case of `Cn1c(NC(=O)C2CCCC2)cc(=O)n(C)c1=O`, the “hERG current change (%, negative = inhibition) at 1uM” value is reported as 11.2%.
For `Br.COCCn1c(-c2ccccc2)csc1=Nc1cccnc1`, the “hERG current change (%, negative = inhibition) at 1uM” value was -10.8%.
For `COc1ccc(N2CCN(C(=O)c3ccc(CNS(=O)(=O)c4cccc(OC)c4)cc3)CC2)cc1`, the “hERG current change (%, negative = inhibition) at 1uM” value was 8.36%.
In the case of `O=C(NC1CCCCC1)N1CCC(n2c(=O)[nH]c3ccccc32)CC1`, the “hERG current change (%, negative = inhibition) at 1uM” value is reported as 4.29%.
For `CC(=O)Nc1ccc(Oc2ccc3c(c2)C(=O)NC3=O)cc1`, the “hERG current change (%, negative = inhibition) at 1uM” value was 20.8%.
In the case of `CCc1ccc(CNc2ccc(N3CCN(C(C)=O)CC3)cc2)cc1`, the “hERG current change (%, negative = inhibition) at 1uM” value is reported as -0.228%.
For `CCOc1cc(/C=N/NC(=O)OC)ccc1OCCSc1ccc(Cl)cc1`, the “hERG current change (%, negative = inhibition) at 1uM” value was 3.82%.
With `Cc1ccc2cc(C=O)c(N3CCOCC3)nc2c1C` the “hERG current change (%, negative = inhibition) at 1uM” value was 16.1%.
`CN1CCSc2ccc(C(=O)NCc3ccccc3)cc21` was tested, and the “hERG current change (%, negative = inhibition) at 1uM” value was 0.0917%.
In the case of `CCC1CCCCN1CCNC(=O)C1CCN(S(=O)(=O)c2cccc3nsnc23)CC1` (stereo not shown), the “hERG current change (%, negative = inhibition) at 1uM” value is reported as 1.72%.
For `COc1ccc([C@H]2[C@H](C(C)=O)N3N=Cc4ccccc4C3C23C(=O)OC(C)(C)OC3=O)cc1` (stereo partly shown), the “hERG current change (%, negative = inhibition) at 1uM” value was -1.51%.
In the case of `CC(=O)c1c(C)[nH]c(C(=O)CSc2nnc(CN3CCCCCC3=O)n2-c2ccccn2)c1C`, the “hERG current change (%, negative = inhibition) at 1uM” value is reported as 13.1%.
